B1: LINE1-mini (parent)
chain: GGCAGAGCUCAACACAGCGUGGCAAAGUGGCUGUGGCUAGACUGCC

Read counts are not given, so values of variants with three or more changes are uncertain.

The variants in this series derive from B1. Nature of the series: self-cleavage, relative activity (ratio to wild type); higher = more cleavage; in vitro, sequencing; the parent is a self-cleaving ribozyme.
Regarding G22C C23U A25C A26C, the self-cleavage was found to be 0.86.

In the case of C23A A24U U38A, the self-cleavage came out at 1.51. As for C23A U34A G35A C46U, the figure is 0.05; as for G22U A26U G29U G30A U38C, 0.39. With C23G G30C C31U U34C, the self-cleavage worked out at 0.04. Regarding A24C G40C C46G, the self-cleavage came to 0.01. As for C23A G29U C31U C46A, the figure is 0.16; as for G22A U28C G33U G35U, 0.08. As for C23G G29U G35A, the figure is 0.09; as for C23U U28A C31U, 0.99; as for A24G A39G G44U, 0.1. As for C23U U38G G44U, the figure is 0; as for A24C U32A C45G, 0.05. Regarding A24G A25U C37U, the self-cleavage was found to be 0.05. For the variant A24C G30A G36A, the self-cleavage was 0.07. As for A24U C31U A41G, the figure is 0; as for C23A G30A G44C, 1.36. As for C23G A25C G27A G36A, the figure is 0.13; as for G22U A39U C46A, 0.5; as for A24G A25C G44C, 0.16. On to A24C C37G U38G, for which the self-cleavage was 0.01.

For the variant G22U G33A U38A, the self-cleavage was 0.21. As for A24G C31G C37G, the figure is 0.01; as for A24G A39C G44U, 0.03; as for G22A A41G G44C, 0.07. The value for C23U G40C C45U was 0.2. The value for G22U C31G A39G was 0.03. On to C23A G27U C42U, for which the self-cleavage came to 0.66. The value for C23G U34G G40U was 0.04.

With G22A G27C C31U, the self-cleavage is 0.01.

For G21U G33U G36C, the self-cleavage stood at 0.02. With G22U A25G C31G C42U, the self-cleavage came out at 0.01. Take G22U A24U A41U: the self-cleavage came to 0.39. As for C23U U34G C37G, the figure is 0.01; as for C23A A25G G40U A41C, 0.02.

As to G22U C37A G44A, the self-cleavage came to 0.12. As for C23G U38G C42A, the figure is 0; as for G22U C31A G44C, 0.04. The value for C23U A24U A25U G36C was 0.02; that for A24G A25C G33U was 0.06; that for A24C A26C G30C C46U was 0.07.

G22A A25G U34A C37A G40C G44C: the self-cleavage came to 0.04.

Turning to G22U C23G G36C A41G, the self-cleavage turned out to be 0.08. As for C23A A25C C37G G44U, the figure is 0.08; as for C23U G30A G40U, 0.28. Consider C23G U34G A39U C45A, for which the self-cleavage came to 0.02. The value for G22U U38C A41U was 0.02; that for A24U C31A U43C C46U was 0.03; that for G22C U28A U32C G40U was 0.01.

For the variant C23U C31A G36U, the self-cleavage stood at 0.05.

For G22A U28G G29A C31U, the self-cleavage worked out at 1.67. The value for C23G C37A C45G was 0.02; that for C23A U28G U34C was 0.16; that for C23A A24G C31A A39U A41C was 0. As for G22C A24G U28G G29U U38G C42U, the figure is 0.01. As for A24U G27U U32C G33C, the figure is 0.01; as for C23A A25U G29C, 0.55; as for G22U G35A U43C, 0.02. Turning to C23A G29A G40U, the self-cleavage was found to be 0.08. As for G22U A25G G30A A41U, the figure is 0.46; as for G22U C23A G33U U43A C45G, 0.03.

Take C23G G27A G35A A41C C45G C46A: the self-cleavage is 0.07. Consider C23G G35C A39U, for which the self-cleavage was 0.08. As to A24G G29U U34A, the self-cleavage amounted to 0.08. For C23A G35C A41U, the self-cleavage was 0.08.

Take A24U G30U A39C C42A: the self-cleavage turned out to be 0.04.

With A24U G36A C45G, the self-cleavage came out at 0.03.

On to G22A G27C G29C G33U, for which the self-cleavage is 0.11. As for C23U C37U G40A, the self-cleavage was determined as 0.03. The value for G22C C23A U28C was 0.27; that for G22U G30U G40C was 0.1; that for C23U G30U G36U C42U was 0.02. As to A24C G29A U38C, the self-cleavage worked out at 1.54.

Regarding A24U G33C A39G, the self-cleavage came to 0.11. Take C23U A25G G29C: the self-cleavage turned out to be 0.12.

On to G21U G33U A41U C46A, for which the self-cleavage stood at 0.16. As for C23A C42A C46A, the figure is 0.47; as for A24G G27A G30A, 1.48.

In the case of A24C G30C A41G, the self-cleavage was found to be 0.03. In the case of A24G G29C G40C, the self-cleavage amounted to 0.04.

Regarding G21U G30U U38C G40A, the self-cleavage amounted to 0.09. The value for G22A U38G G40A was 0.01; that for G22U U28A G33C was 0.04. As for A24U C37G C46A, the figure is 0.04; as for C23U G29C C45G, 0.45. As for G22U G33C C37A, the figure is 0.06. As for G22A G27U G33U A39C, the self-cleavage was found to be 0.02. As for C23A G30A G36C A39C, the figure is 0.07; as for C23G G27A G29U U38C G40U, 0.14; as for A24G A25G G27A, 0.95. As for G22U U32A C46U, the figure is 0.22. Regarding C23A U28C U38A U43A, the self-cleavage turned out to be 0.12.

G22C G30C C37U: the self-cleavage worked out at 0.02. The value for A24U C31G A39C was 0.05. The value for G22U A24C A26C G33U was 0.1; that for C23G G29C C37A A39U was 0.

In the case of A24C C31A A39U, the self-cleavage came out at 0.06. Take C23A U32C C45G: the self-cleavage was 0.05. On to C23A A24U G35U C46U, for which the self-cleavage was 0.04. The value for G22A U38A A39U was 1.89. With C23A A24U C31U U38A, the self-cleavage came to 0.52. Turning to A24C G27A U28A C37G, the self-cleavage turned out to be 0.02. As for G22C G29U C46U, the figure is 0.17. Consider A24U G44A C45U, for which the self-cleavage was found to be 0.02. The value for G22A G29A C45A was 0.61; that for G22A G33U G36U was 0.04. Consider A24G G30C G44C, for which the self-cleavage was 0.08. With C23A C31U U38C, the self-cleavage came out at 0.46. The value for C23G G30C G33U C46A was 0.02. On to G21U U43G C46G, for which the self-cleavage amounted to 0.08. As for G21U U43G C46U, the figure is 0.02; as for A24U C31G C37A, 0.02. As for G22U A39U G44A C45U, the figure is 0. On to C23U U38A A41G, for which the self-cleavage stood at 0.15. The value for G22U U34A C42A was 0.1.

In the case of G22U G36C U38C A41U C45U, the self-cleavage came out at 0.01.

Take C23U G33C C37A A39G C42G: the self-cleavage was 0.01. As for C23A A26G G27A G35A U43A, the figure is 0.03.

In the case of G21U U34G G36A, the self-cleavage was found to be 0.17. As for G22U G30U A39U A41G U43G, the figure is 0.03; as for G22A G35C G40C, 0.13; as for C23G U34G C37U G40U, 0.01. As for G22U C31G G36C, the self-cleavage was 0. On to G22U G27A U28A U38C, for which the self-cleavage was 0.07. The value for C23G A26U U38G was 0.03; that for G22A G29C G30U U38A C45U was 0.23. The value for C23A G29U C37A was 0.03. The value for C23A G29U C37U was 0.04; that for G22C G36U U43A was 0.46. On to G22A U32G C37G, for which the self-cleavage is 0.04. The value for G21U G33A G40A was 0.08.

Consider G22U A25U G40U, for which the self-cleavage was 0.15. The value for G22U G27U U32A G44A was 0.04.

C23A U32G G35A A41U: the self-cleavage was determined as 0.03. On to C23G G29U G40A, for which the self-cleavage was 0.11. Turning to G22C G30A C31G G40U, the self-cleavage came to 0.02. In the case of C23G A41C G44A, the self-cleavage turned out to be 0.08.

For the variant G22C C23A G27C, the self-cleavage was determined as 0.26. With C23G U43G G44C, the self-cleavage was found to be 0.05. As for G22C C31U C37A A41G, the self-cleavage was determined as 0.05. The value for C23U A25C G40U was 0.02.

G22C G33C C46U: the self-cleavage stood at 0.1.

As to C23U A24C U43C, the self-cleavage amounted to 0.05. The value for G22C G29U G35C U43A was 0.05. As for G22A U28C G35U C45A, the figure is 0.06. The value for G22U A41U C42G was 0.14. For C23A C31U G40U, the self-cleavage turned out to be 0.17. As for C23G G27C G40U, the figure is 0.06.

Consider C23A G30A C31U, for which the self-cleavage came out at 0.29. The value for C23A U43A C46U was 0.13; that for C23A U34C G44A was 0.22. The value for G22A C31A G44A was 0.07; that for G21U U28C G30C was 0.25; that for G22A G33U C45U was 0.39. The value for A24G G27C G40C was 0.17; that for A24C G33C C46U was 0.05. Turning to C23U C31A G36C A41C G44C, the self-cleavage is 0.02. As for G22U A25U G27A, the figure is 0.81; as for C23G U34C A39C, 0.09. The value for A24U G35C C37A was 0.06.

On to G22U C37G C46U, for which the self-cleavage stood at 0.01. In the case of C23G G29A U34G, the self-cleavage turned out to be 0.05. In the case of C23A C42G C46U, the self-cleavage came out at 0.02. The value for G21U G33U G35A was 0.06; that for G22C U32A G44A C46G was 0.03. As for A24G C37U C42A, the figure is 0.09; as for G22U C23U G27A, 2.71.

Values taken from the RNAGym collection of RNA variant scans (doi:10.7554/elife.90254).
